Where “and” joins values, the source holds several entries; their conditions need not be identical. Equal entries are not always repeated. Over roughly 13,000 compounds, “IFI” has its median near 4; the highest 2% begin near 17. The list shows a part of the results.
Test: GSK_TCMDC: Inhibition Frequency Index (IFI). The number of non-kinase HTS assays where a compound showed > 50 % inhibition, expressed as a percentage of the number of such assays in which the compound was tested (-0 is zero)
Format: functional

Structure (SMILES)	IFI
O=C(NCc1ccc(Cl)c(Cl)c1)c1ccc(C2CCCN(Cc3ccc4[nH]cnc4c3)C2)cc1 (centres undefined)	3%
Cc1cccc2nc(-c3cccc(-c4ccc(NC(=O)c5ccoc5)cc4)c3)[nH]c12	2.68%
CCC1(CC)C(=O)N=C(N2CCCCC2)N(C)C1=O	0.85%
CC(CNC1CCN(CCn2c(=O)ccc3ccc(F)cc32)CC1)c1ccccc1 (centres undefined)	0%
Fc1ccc(NC(S)=NN=Cc2ccccn2)cc1	7.48%
O=C(Nc1ccccc1)c1c[nH]cn1	0%
O=C(Nc1cccnc1)c1cc(-c2cccnc2)nc2ccc(Br)cc12	1.56%
O=C(NCc1ccccc1)NC1CCN(c2ccnc3cc(Cl)ccc23)C1 (centres undefined)	-0%
N#Cc1ccc(NC(=O)c2ccc(C(=O)NCCCCN3CCC(c4ccc5c(c4OCCOC4CCCCO4)CCCC5)CC3)cc2)cc1 (centres undefined)	12.3%
CN(C)C(CNc1ncnc2cc(Cl)ccc12)Cc1ccccc1 (centres undefined)	3.13%
Cc1ccc2c(Cl)c(C(=O)N3CC(C)OC(C)C3)sc2c1 (centres undefined)	1.37%
CNCc1ccc(-c2ccc3ccnc(N)c3c2)cc1	6.86%
O=C1CSc2ccc(CNC3CCN(CCc4c(F)cnc5ccc(F)cc45)CC3)nc2N1	4.38%
O=C(N[C@@H](CC1CCCCC1)C(=O)NC1CC1)c1ccc(O)c(-c2cccc(C(F)(F)F)c2)c1	2.26%
CCCN1CCN(CCNC(=O)c2cccc(Nc3nccc(Nc4ccc(Oc5ccccc5)cc4)n3)c2)CC1	4.48%
COc1ccc2nccc([C@@H](O)CN3CCC(NCc4ccc5nnsc5c4)CC3)c2c1	2.9%
CCOc1cc2ncnc(Nc3ccc(OCc4ccccc4OC)c(OC)c3)c2cc1OCC	4.35%
N#Cc1ccc(/C=C/C(=O)NCCCCCN2CCCN(C(=O)Nc3ccc(Cl)c(C(F)(F)F)c3)CC2)cc1	5.94%
Cc1cc(=NN=CC=Cc2ccccc2)c2ccccc2[nH]1	4.35%
CC(C)(C)NC(=O)c1ccc(Oc2ccc(OC(F)(F)F)cc2)c(NC(=O)C(C)(C)C)c1	0.74%

Structure (SMILES)	IFI
CCc1cc2c(O)c([N+](=O)[O-])c(=O)oc2cc1OCCCCCOc1cc2oc(=O)c([N+](=O)[O-])c(O)c2cc1CC	17.1%
CCC[C@@H]([C@@H](CC1CCCCC1)C(=O)N[C@@H](CCCCNS(C)(=O)=O)C(=O)Nc1nccs1)N(O)C=O	1.6%
Cc1[nH]c(C)c(-c2ccc(/C=C/c3ccccn3)cc2)c(=O)c1Cl	0.92%
CN1CCC(C(=O)Nc2cccc(-c3cccc(-c4nc5cc(F)ccc5[nH]4)c3)c2)CC1	4.24%
COc1ccc(S(=O)(=O)N2CCC3(CC2)OCC(=O)NC3c2ccc(Cl)c(Cl)c2)cc1 (centres undefined)	7.69%
COC(=O)c1ccc(OCC(C)NCC(O)c2cccc(C(F)(F)F)c2)cc1 (centres undefined)	5.26%
CC(C)N1CCC(N(Cc2ccc(-c3ccc(Cl)cc3)cc2)C(=O)Cn2c(CCc3cccc(F)c3F)nc(=O)c3ccccc32)CC1	7.8%
CS(=O)(=O)c1ccc(-c2cnc(N)c(-c3cccc(O)c3)c2)cc1	1.69%
CC[C@H](C)CNC(=O)c1cncc(-c2cccc(CNCCCc3ccccc3)c2)c1	6.45%
Cc1ccccc1CCNC(=O)c1ccc(N2CCN(c3ccncc3)CC2)nc1	2.08%
COc1cccc2cc(C(=O)N[C@@H](CC(C)C)C(=O)N[C@H](C=NN3CCOC3=O)Cc3ccccc3)oc12	3.67%
Cc1ccc2c(-c3ccc([N+](=O)[O-])o3)cc(C)nc2c1	2.88%
COc1cc(-c2ccc(-c3cnc(N)nc3OC)[nH]2)cc(OC)c1OC	1.4%
CN(C)C(=O)CC(=O)NCc1cccc(Cl)c1	-0%
O=C(/C=C/c1ccc(Cl)c(Cl)c1)NCCCCCN1CCC(NC(=S)Nc2cccc(Cl)c2)CC1	10.3%
COc1ccc(CNCCc2cccs2)cc1-c1ccc(S(=O)(=O)NCCN2CCCC2)s1	11.8%
CN(C)CCOc1cccc(-c2cnc(N)c(-c3nc4cc(S(C)(=O)=O)ccc4[nH]3)c2)c1	11.1%
COc1ccc2c(c1CCNCCCCNCCc1c(OC)ccc3c1CCCC3)CCCC2	18.3%
Oc1cc(Nc2ccnc3cc(-c4ccc(CN5CCCCC5)o4)c(Cl)cc23)c(Cl)cc1F	3.03%
Cc1ccnc2nc(C(=O)Nc3cc(C(F)(F)F)ccc3N3CCCCC3)nn12	0%

Structure (SMILES)	IFI
CCC(NC[C@@H](O)[C@H](Cc1ccccc1)NC(=O)c1cc(C2CCCC2)cc(N2CCCC2=O)c1)c1cccc(Cl)c1 (some centres undefined)	5.71%
CCCCCCCCc1c(C)nc(C)c(I)c1O	4.38%
O=C(NCC1Cc2cc(Oc3ccccc3)ccc2O1)c1ccc([N+](=O)[O-])o1 (centres undefined)	17.9%
CC(C)c1ccc(NC(=O)NCCCC2CCCN(CCCCCNC(=O)/C=C/c3ccc(Cl)c(Cl)c3)C2)cc1 (centres undefined)	13.4%
O=C(Nc1cccc(CN2CCN(Cc3ccc(O)cc3)CC2)c1)c1ccc(-c2ccccc2)cc1	11%
Cc1ccc(Nc2nc(N/N=C/c3cccc(O)c3)nc(Nc3ccc([N+](=O)[O-])cc3)n2)cc1C	2.11%
Oc1ccc(CCNc2nc(NCc3cccc(OCc4cccc(F)c4)c3)nc(N3CCNCC3)n2)cc1	14.3%
N#CC(CC(=O)c1ccc(Cl)cc1)c1cccc(F)c1 (centres undefined)	0.69%
CCCNCc1ccc(-c2ccc(CN(CCOC)C(=O)c3ccccc3)cc2)nc1	0.75%
Cc1cc2nc(-c3cc(Br)ccc3O)c(-c3cc(Br)ccc3O)nc2cc1C	0%
O=C(NCCN1Cc2ccccc2C1=O)c1ccc(Oc2ccc(C(=O)NCCN3Cc4ccccc4C3=O)cc2)cc1	2.88%
CCCCC(=O)Nc1ccc(Nc2nc(C)cc(N3CCCC3)n2)cc1	7.14%
O=c1cc(NCCCNCc2cccc(C(F)(F)F)c2Cl)[nH]c2ccccc12	0.72%
NC1=NC(c2ccccc2)(c2cccc(O)c2)C(=O)N1CCCc1ccccc1 (centres undefined)	1.75% and 13.6%
CCn1c(C=Cc2cc(Br)ccc2O)nc2ccccc2c1=O	3.55%
CS(=O)(=O)CCNCc1ccc(-c2ccc3ncnc(Nc4ccc(OCc5ccccc5)c(Cl)c4)c3c2)o1	3.47%
CCc1ccc2c(c1O)CCN(C)C2Cc1ccccc1Cl (centres undefined)	1.44%
Cc1cc(=NN=Cc2ccccc2F)c2cccc(C)c2[nH]1	1.48%
CC(=O)NCCCCC1NC2(C(=O)N(Cc3ccc(C(C)(C)C)cc3)c3ccccc32)C2C(=O)N(C3CCCCC3)C(=O)C12 (centres undefined)	2.9%

Source: ChEMBL document CHEMBL1157539, “Thousands of chemical starting points for antimalarial lead identification” (Nature, 2010)
